Experimental data: the supplement of paper PMC11383711
This is one part of the list. Binding of human antibodies (heavy:light variable regions, tested as scFv in one mRNA-display pool) to influenza hemagglutinin, with or without the stem antibody CR9114 bound first. Score = (mean enrichment − median) / interquartile range of that screen; higher = more enriched, 0 = typical non-binder. Active = above the paper's cut-off per screen: stems 28; unblocked H1 Solomon Islands 5, H1 Michigan 3, H3 5, H5 19, H7 2.85, both B 5; blocked 9, 7, H5 10, H7 10, B Phuket 10, B Lee 11.5. Scores are scaled within each screen and are no affinities; replicates correlate at about 0.6 to 0.9, and antibodies rare in the pool are noisier.

B1: C1-3E03 (protein)
chain 1: VQLVESGGGLVQPGGSLRLSCVVSGFSFSKYEMNWVRQAPGKGLEWISYISSSGETIFYADSVRGRFTTSRDNAHNSLYLQMNSLRAEDTAIYYCANMRAWFWYDPADDIGHWGQGTLVTVSS
chain 2: EIVMTQSPVTLSVFPGERATLSCRASQSVNNNLAWYQQRPGQTPKLLIYDASTRATGIPARFSGSGSGTVFTLTISSLQSEDIAVYYCQQYAGWPPWTFGQGTKVEIK
B2: AG11-2A01 (protein)
chain 1: VQLVESGGAVVQPGGSLTLSCAASGFTFDDYAMHWVREVPGKGLEWVSLISWDAGNTYYGDSVKGRFNISRDNSKNFLYLQMNSLRADDTALYYCAKDIGGGNYDYYHGMDAWGQGTTVTVSS
chain 2: EIVMTQSPATLSVSPGERATLSCRASYSFGSKLAWYQQKPGQAPRLLIYGTSTRATGIPARFSGSGSGTEFTLTISSLQSEDFAVYYCQQYNNWPYTFGQGTKVEIK
B3: K77-2H08 (protein)
chain 1: QVQLQESGPGLVKPSETLSLTCSVSGNSITSGYFWGWIRQTPGKGLEFIGSISHKGEPYYNPPLKGRVAVSSDTSKNEFSLTLASVTAADTAIYYCARERGGTYGYFDHWGPGSLVTVSS
chain 2: DIQMTQSPSTLSASVGDRVTITCRASESIGAWVTWYQQKPGKAPNLLIYKASTLQTGVPSRFSGGGSGTDFTLTISSLQPDDFATYYCQQYFRDVTFGQGTKVEIK
B4: 051-10-2D06 (protein)
chain 1: EVQLVESGGGLVQPGGSLRLSCAASGFTFTRHWMSWVRQAPGKGLEWVANVKQDGSDKYYVDSVKGRFTISRDNAKNSVYLQMNSLRAEDTAVYYCARYGGSYLDYWGQGTLVTVSS
chain 2: QSALTQPASVSGSPGQSISISCTGTSSDVGNYNFVSWYQQHPGKAPKLMIYEDNKRPSGVSSRFSGSKSGNTASLTIFGLQAEDEADYYCCSYAGSSTYVFGTGTRVPVL
B5: R95-1H10 (protein)
chain 1: EVQLVESGGVVVQPGGSLRLSCAASGFTFDDFVMHWVRQAPGKGLEWLSLITWDGGNSYYADSVKGRFTISRDNNKNSLYLQMNSLRPEDTAFYYCAKDIISGNYEDFSGYLDSWGQGTLVTVSS
chain 2: EIVMTQSPATLSVSPGGRATLSCRASQSVSSNLAWYQQKPGQPPRLLMYGASTRATGIPARFSGSGSGTEFTLTISSLQSEDVAVYYCQQYNNWPSITFGQGTRLEIK
B6: 236-14-IgG-1A06 (protein)
chain 1: QVQLQESGPGLVKPSETLSLTCTVSGGSISSSSHYCTWIRQPPGKGLEWIGGIYYTGNAYYNPSLKSRVTISVDASKNQFSLKLRSVTAADTAVFYCVGSQAIDAFDFWGQGTMVTVSS
chain 2: QSALTQPPSASGSPGQSVTISCTGTSSDVGYYNYVSWYQQHPGKAPKLMIYEVSNRPSGVPDRFSGSKSGNSASLTVSGLQAEDEADYYCSSYGGSNNVIFGGGTKLTVL

molecular target: Influenza A H1N1 A/Michigan/45/2015 hemagglutinin ectodomain; test: mRNA display binding score; higher = more enriched on the antigen; conditions: antigen blocked with: 2 µM CR9114 IgG
Description: (§1)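 A pool of natively paired antibodies, displayed as scFv on mRNA, was selected once on antigen-coated beads and sequenced before and after; two replicates.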

| Binder | mRNA display binding score |
| --- | --- |
| B1 | inactive: -0.352 |
| B2 | inactive: -0.0428 |
| B3 | inactive: -0.481 |
| B4 | inactive: 0.599 |
| B5 | inactive: -0.139 |
| B6 | active: 45.3 |

same assay, conditions: antigen blocked with: nothing

| Binder | mRNA display binding score |
| --- | --- |
| B1 | inactive: -0.393 |
| B2 | inactive: -0.46 |
| B3 | inactive: -0.691 |
| B4 | inactive: -0.349 |
| B5 | inactive: -0.336 |
| B6 | inactive: 2.43 |

molecular target: Influenza A H1N1 A/Solomon Islands/3/2006 hemagglutinin ectodomain; test: as above; conditions: antigen blocked with: 2 µM CR9114 IgG
Description: as §1

| Binder | mRNA display binding score |
| --- | --- |
| B1 | inactive: -0.528 |
| B2 | inactive: -0.365 |
| B3 | inactive: -0.232 |
| B4 | inactive: 0.0606 |
| B5 | inactive: -0.0852 |
| B6 | inactive: 0.386 |

same assay, conditions: antigen blocked with: nothing

| Binder | mRNA display binding score |
| --- | --- |
| B1 | inactive: -0.48 |
| B2 | inactive: -0.513 |
| B3 | inactive: -0.444 |
| B4 | inactive: -0.189 |
| B5 | inactive: -0.591 |
| B6 | inactive: 0.0552 |

molecular target: Influenza A H3N2 A/Singapore/INFIMH-16-0019/2016 hemagglutinin ectodomain; test: as above; conditions: antigen blocked with: nothing
Description: as §1

| Binder | mRNA display binding score |
| --- | --- |
| B1 | inactive: -0.133 |
| B2 | inactive: -0.47 |
| B3 | inactive: -0.53 |
| B4 | inactive: -0.0481 |
| B5 | inactive: -0.153 |
| B6 | inactive: 0.356 |

molecular target: Influenza A H5N1 A/Qinghai/1A/2005 hemagglutinin ectodomain; test: as above; conditions: antigen blocked with: 2 µM CR9114 IgG
Description: as §1

| Binder | mRNA display binding score |
| --- | --- |
| B1 | inactive: -0.66 |
| B2 | inactive: -0.797 |
| B3 | inactive: -0.937 |
| B4 | inactive: -0.515 |
| B5 | inactive: -0.276 |
| B6 | inactive: 0.605 |

same assay, conditions: antigen blocked with: nothing

| Binder | mRNA display binding score |
| --- | --- |
| B1 | inactive: -0.446 |
| B2 | inactive: -0.561 |
| B3 | inactive: -0.659 |
| B4 | inactive: -0.466 |
| B5 | inactive: -0.259 |
| B6 | inactive: 0.314 |

molecular target: Influenza A H7N9 A/Shanghai/2/2013 hemagglutinin ectodomain; test: as above; conditions: antigen blocked with: 2 µM CR9114 IgG
Description: as §1

| Binder | mRNA display binding score |
| --- | --- |
| B1 | inactive: -1.12 |
| B2 | inactive: -0.605 |
| B3 | inactive: -0.691 |
| B4 | inactive: 1.37 |
| B5 | inactive: -0.244 |
| B6 | inactive: 0.455 |

same assay, conditions: antigen blocked with: nothing

| Binder | mRNA display binding score |
| --- | --- |
| B1 | inactive: -0.355 |
| B2 | inactive: -0.606 |
| B3 | inactive: -0.75 |
| B4 | inactive: -0.405 |
| B5 | inactive: -0.189 |
| B6 | inactive: 0.179 |

molecular target: Influenza B/Lee/1940 hemagglutinin ectodomain; test: as above; conditions: antigen blocked with: 2 µM CR9114 IgG
Description: as §1

| Binder | mRNA display binding score |
| --- | --- |
| B1 | inactive: -0.79 |
| B2 | inactive: 0.096 |
| B3 | inactive: 0.0168 |
| B4 | inactive: 0.532 |
| B5 | inactive: 0.729 |
| B6 | inactive: 0.549 |

same assay, conditions: antigen blocked with: nothing

| Binder | mRNA display binding score |
| --- | --- |
| B1 | inactive: -0.412 |
| B2 | inactive: -0.327 |
| B3 | inactive: -0.28 |
| B4 | inactive: 0.649 |
| B5 | inactive: -0.406 |
| B6 | inactive: -0.122 |

molecular target: Influenza B/Phuket/3073/2013 hemagglutinin ectodomain; test: as above; conditions: antigen blocked with: 2 µM CR9114 IgG
Description: as §1

| Binder | mRNA display binding score |
| --- | --- |
| B1 | inactive: -0.538 |
| B2 | inactive: 0.783 |
| B3 | inactive: -0.59 |
| B4 | inactive: -0.143 |
| B5 | inactive: 3.46 |
| B6 | inactive: 0.174 |

same assay, conditions: antigen blocked with: nothing

| Binder | mRNA display binding score |
| --- | --- |
| B1 | inactive: -0.356 |
| B2 | inactive: 1.92 |
| B3 | inactive: -0.36 |
| B4 | inactive: -0.073 |
| B5 | active: 5.43 |
| B6 | inactive: -0.091 |
